Assay results as given in PubChem BioAssay AID1745853 (National Center for Advancing Translational Sciences (NCATS), 2022).
Some of the results follow. These are further read-outs of the screen, such as a control signal, another cell line or another target. No call is given for them.

Assays:
Assay in all cases: Primary Screen for Target Class Profiling of Small Molecule Inhibitors of Methyltransferases
[1] = target: Glycine N-methyltransferase (Homo sapiens) (UniProt Q14749); conditions: purified enzyme, MTase-Glo SAH luminescence; measured here: GNMT inhibition; at 40 µM; stronger effect = lower value
Procedure, shortened: (§1)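 Each enzyme was assayed with SAM and its substrate. SAH formation detected by MTase-Glo luminescence; single-point 40 uM screen[…].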

[2] = target: Guanidinoacetate N-methyltransferase (Homo sapiens) (UniProt Q14353); conditions: purified enzyme, MTase-Glo SAH luminescence; measured here: GAMT inhibition; at 40 µM; stronger effect = lower value
Procedure, shortened: as §1

[3] = target: Histamine N-methyltransferase (Homo sapiens) (UniProt P50135); conditions: purified enzyme, MTase-Glo SAH luminescence; measured here: HNMT inhibition; at 40 µM; stronger effect = lower value
Procedure, shortened: as §1

[4] = target: Nicotinamide N-methyltransferase (Homo sapiens) (UniProt P40261); conditions: purified enzyme, MTase-Glo SAH luminescence; measured here: NNMT inhibition; at 40 µM; stronger effect = lower value
Procedure, shortened: as §1

[5] = target: Phenylethanolamine N-methyltransferase (Homo sapiens) (UniProt P11086); conditions: purified enzyme, MTase-Glo SAH luminescence; measured here: PNMT inhibition; at 40 µM; stronger effect = lower value
Procedure, shortened: as §1
% is set by controls: 0 for no effect and ±100 for the full control effect.

Row | SMILES | activity change, negative = inhibition [1] | activity change, negative = inhibition [2] | activity change, negative = inhibition [3] | activity change, negative = inhibition [4] | activity change, negative = inhibition [5]
1 | O=[S+]([O-])(c1ccccc1)N1CCCC2(CC(c3cccc(C(F)(F)F)c3)=NO2)C1 (stereo not given) | -8.56% | -4.55% | -2.58% | -12.2% | -6.06%
2 | Cc1nc2ccc(CN(C)c3ccc(C(=O)NC(CCC(=O)O)C(=O)O)s3)cc2c(=O)[nH]1 (stereo not given) | 1.64% | – | 11% | – | –
3 | CN1CCN(Cc2nnc(C3CCN(C(=O)C4(N)CC4)CC3)n2C)CC1 | -1.42% | -0.405% | -9.13% | -0.372% | -2.37%
4 | c1cc(N[C@@H]2CCNC2)nc(-c2cnc3ccc(-c4cn[nH]c4)cn23)c1 | -33.2% | -23% | -53.5% | -40% | -13.6%
5 | COc1ccc2cc3n(c2c1)CC(C)(C(=O)NC1CCCCC1)N(C1CCCC(C)C1C)C3=O (stereo not given) | 0.279% | 0% | 0.055% | -5.5% | -5.78%
6 | CC(C)N1C[C@H](O)C[C@H]1c1nnc2n1CCN(C(=O)CCc1c[nH]c3ccccc13)CC2 | -1.61% | 2.05% | 3.91% | -1.79% | 15.2%
7 | Cn1c(=O)n(C)c2cc(S(=O)(=O)N3CCc4ccccc4C3)ccc21 | 18.1% | 3.94% | 9.5% | 6.78% | 3.32%
8 | CCOCCCN1C(=O)c2c(NC(C)=O)c3cc(F)ccc3n2CC1(C)C(=O)NC1CCCC1 (stereo not given) | -0.332% | 3.58% | 0.941% | -0.941% | -1.5%
9 | OC1(c2ccc(Cl)cc2)CCN(Cc2c[nH]c3ccccc23)CC1 | 3.98% | 8.82% | -2.9% | -13.4% | 2.74%
10 | O=C(c1cccnc1)N1CCC12Cc1ccccc1NC2=O (stereo not given) | -7.41% | -6.58% | -2.81% | -14.2% | 9.41%
11 | CCC(=O)N1CCCCCCNC(=O)[C@@H]2C[C@@H](C(=O)N3CCN(c4ccccn4)CC3)C[C@@H]21 | -3.02% | -6.97% | -2.23% | -8.39% | -2.1%
12 | O=c1cc(-c2cccnc2)oc2c(-c3cn[nH]c3)nccc12 | -9.26% | -9.39% | -4.65% | -11.2% | -12.5%
13 | O=C(C1CCCCC1)N(CCN1CCN(c2ccccc2O)CC1)c1ccccn1 | 2.12% | -2.92% | -6.33% | -16.1% | -8.15%
14 | CC1(C(=O)NC2CCCCCC2)Cn2c(cc3occc32)C(=O)N1Cc1cccc(F)c1 (stereo not given) | -4.9% | 1.99% | -6.32% | -8.79% | -6.26%
15 | CC(C)n1cc(-c2ccc(Oc3ccccc3)cc2)c2c(N)ncnc21 | – | -12.8% | – | -48.2% | -58.4%
16 | COc1cc(C)c(-c2nc(CN3CCCC(CN)C3)c(C)o2)cc1C (stereo not given) | 2.4% | 0.307% | -13.2% | -4.18% | -15.2%

Row | SMILES | activity change, negative = inhibition [1] | activity change, negative = inhibition [2] | activity change, negative = inhibition [3] | activity change, negative = inhibition [4] | activity change, negative = inhibition [5]
17 | NC(=Nc1ccccc1)NC(=O)c1nc(Cl)c(N)nc1N | -12.7% | 14.6% | 0.592% | -2.86% | 8.65%
18 | Clc1ccc(-c2cnc3ccccc3n2)cc1 | -0.689% | 4.91% | 4.18% | 8.31% | -1.78%
19 | CC1(C(=O)N2CCOCC2)CN(Cc2ccccc2)Cc2ccc(Nc3ccccc3)nc21 (stereo not given) | -7.34% | -7.41% | -6.79% | -14.9% | -14.7%
20 | CCC(C)NC(=O)c1ccc2c(=O)n(C)c3nn(CC(=O)c4cc(C)ccc4C)c(=O)n3c2c1 (stereo not given) | 8.69% | 2.83% | 11% | 1.02% | 7.23%
21 | Cc1ccc(NC(=O)N2Cc3c(sc4c3CCCC4)-n3cccc3C2c2cccc(F)c2)cc1F (stereo not given) | 0.122% | 0% | 8.01% | -0.313% | -3.26%
22 | Cc1oc(C(C)C)cc1C(=O)N1CC[C@](C)(O)[C@@H](O)C1 | -6.3% | -9.59% | -3.9% | -14.6% | -10.7%
23 | CCC(C)NC(=O)c1ccc2c(=O)n(C)c3nnc(SCC(=O)c4ccc(C)cc4C)n3c2c1 (stereo not given) | 5.5% | 0.557% | 8.29% | 5.96% | 6.36%
24 | Cn1cnc(CN2CCNc3cc(Nc4ccccc4)ncc3C2)c1 | -14.8% | -3.61% | -84.4% | -16.3% | -18.4%
25 | CC(=O)Nc1ccc(CN2CCC[C@H]2c2nc(-c3ccc(N4CCC(C(N)=O)CC4)nc3)no2)cc1 | -3.47% | -9.46% | -5.06% | -10.9% | -3.64%
26 | CC(C)N1C(=O)C2(CCCC2)C1C(=O)N1CCc2ccccc21 (stereo not given) | -1.42% | -3.77% | -1.63% | -7.23% | -0.741%
27 | CC1(C(=O)NCc2ccccc2)Cn2c(cc3ccccc32)C(=O)N1C1CC1 (stereo not given) | -6.52% | 0.565% | -2.6% | -4.22% | -4.16%
28 | COc1cc(O)cc(OC2OC(CO)C(O)C(O)C2O)c1 (stereo not given) | 2.44% | 3.82% | 9.38% | -8.13% | -1.23%
29 | CCC1c2ccc(C)n2CCN1C(=O)Nc1cccc(C)c1 (stereo not given) | 3.72% | 0.997% | 0.076% | 0.825% | 1.08%
30 | COc1ccccc1CNC(=O)C1(C)Cn2c(cc3ccccc32)C(=O)N1Cc1ccccc1C (stereo not given) | 2.88% | 4.06% | 3.91% | -0.265% | 1.47%
31 | CCc1ccc(CNC(=O)CCCn2ccc3cc(S(=O)(=O)N4CCCC4)ccc32)cc1 | 2.31% | 6.85% | 3.91% | -4.49% | 1.07%
